Laboratory results published in article PMC10485003, “Antibiotic hyper-resistance in a class I aminoacyl-tRNA synthetase with altered active site signature motif” (Nature Communications, 2023).
“And” between values parts separate entries of the source, which are not always exact repeats. Identical values can stand only once. Like-named read-outs stand apart in the source and are kept apart here. Further values from the same series stand in other lists.

Biological target: T1, mut-GVHH TtIleRS2 (Thermus thermophilus, UniProt P56690, G56H/H54G)
T1 construct: hexa-histidine tag (pET28b(+)) (N); made in house; host or cells: E. coli Rosetta2 (DE3)
T1 sequence (P56690 1-1043 H54G/G56H): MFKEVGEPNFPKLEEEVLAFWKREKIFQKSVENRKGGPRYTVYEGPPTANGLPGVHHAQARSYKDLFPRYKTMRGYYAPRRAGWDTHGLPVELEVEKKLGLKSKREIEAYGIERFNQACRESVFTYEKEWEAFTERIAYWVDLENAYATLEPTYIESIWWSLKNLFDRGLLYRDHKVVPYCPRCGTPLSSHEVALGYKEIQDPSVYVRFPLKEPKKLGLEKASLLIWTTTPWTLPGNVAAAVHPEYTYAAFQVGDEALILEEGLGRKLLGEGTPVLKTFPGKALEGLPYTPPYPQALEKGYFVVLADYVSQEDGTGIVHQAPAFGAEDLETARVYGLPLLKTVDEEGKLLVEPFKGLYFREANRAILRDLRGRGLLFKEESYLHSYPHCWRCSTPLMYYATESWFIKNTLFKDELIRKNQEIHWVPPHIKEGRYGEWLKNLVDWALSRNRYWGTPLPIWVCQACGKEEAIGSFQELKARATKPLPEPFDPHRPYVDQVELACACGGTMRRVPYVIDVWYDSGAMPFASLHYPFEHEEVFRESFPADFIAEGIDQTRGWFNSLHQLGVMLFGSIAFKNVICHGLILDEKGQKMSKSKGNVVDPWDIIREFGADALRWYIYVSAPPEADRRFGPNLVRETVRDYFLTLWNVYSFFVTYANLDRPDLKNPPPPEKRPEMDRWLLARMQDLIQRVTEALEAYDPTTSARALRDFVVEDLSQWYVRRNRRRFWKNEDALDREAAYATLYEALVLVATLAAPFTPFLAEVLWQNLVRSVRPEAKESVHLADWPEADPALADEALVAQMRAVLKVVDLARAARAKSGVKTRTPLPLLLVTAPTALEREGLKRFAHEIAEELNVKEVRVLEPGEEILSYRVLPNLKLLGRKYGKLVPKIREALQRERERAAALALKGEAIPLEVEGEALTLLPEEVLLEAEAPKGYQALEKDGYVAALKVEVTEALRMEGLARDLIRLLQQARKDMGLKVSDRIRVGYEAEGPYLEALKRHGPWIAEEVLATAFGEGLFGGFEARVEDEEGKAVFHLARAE
Type: biochemical
Description: L-Ile and ATP concentrations ranged from 1/10 KM to 10 KM values. When measuring the KI towards one of the substrates, the other was held in saturation (concentrations at least 10 KM). The aliquots of the reaction mixture (1–2.5 μl) were quenched in 2 volumes of 500 mM NaOAc pH = 4.5, 0.1% SDS, and formed ^32P-ATP was separated from the remaining ^32P-PPi by thin-layer chromatography on Polygram CEL 300 PEI UV254 TLC plates (Macherey-Nagel, cat: 801063) using 750 mM KH2PO4 pH=3.5, 4 M urea buffer. Visualization and quantification of the signals was performed using a Typhoon Phosphoimager 5 (General Electric) and accompanying ImageQuant™ TL software (SV: 10.2). The kinetic constants were determined using a global fit option of the competitive inhibition model of GraphPad Prism 6 software (SV: 6.01). All experiments were performed in triplicates. The kcat was determined by dividing the maximal velocity, VM, with the used enzyme concentration. […]
variable substrate (ATP or Ile) was varied in the range of 0.1 KM to 10 KM. The other substrate (Ile or ATP) was kept in excess at 5 to 10 KM. Data were globally fitted to the competitive inhibition model using GraphPad prism 6.01 for Windows software. The values represent the average value ± SD of three independent experiments. Source data are provided as a Source Data file.
(1 picture or pasted object on this page, not shown here)

C/C(=C\C(=O)OCCCCCCCCC(=O)O)C[C@@H]1OC[C@H](C[C@@H]2O[C@H]2[C@@H](C)[C@H](C)O)[C@@H](O)[C@H]1O [mupirocin]
initial velocity vo (c(mupirocin) 10.0 μM, c(ATP) 1.0 mM): 0.01517 mM/min and 0.01349 mM/min and 0.01136 mM/min | initial velocity vo (c(mupirocin) 10.0 μM, c(ATP) 2.5 mM): 0.023 mM/min and 0.02233 mM/min and 0.02165 mM/min | initial velocity vo (c(mupirocin) 10.0 μM, c(ATP) 5.0 mM): 0.03471 mM/min and 0.03167 mM/min and 0.02951 mM/min | initial velocity vo (c(mupirocin) 10.0 μM, c(ATP) 10.0 mM): 0.04436 mM/min and 0.04376 mM/min and 0.04818 mM/min | initial velocity vo (c(mupirocin) 10.0 μM, c(ATP) 15.0 mM): 0.05284 mM/min and 0.04883 mM/min and 0.04447 mM/min | initial velocity vo (c(mupirocin) 10.0 μM, c(Ile) 5.0 μM): 0.00401 mM/min and 0.00428 mM/min and 0.00418 mM/min | initial velocity vo (c(mupirocin) 10.0 μM, c(Ile) 15.0 μM): 0.01215 mM/min and 0.01108 mM/min and 0.01184 mM/min | initial velocity vo (c(mupirocin) 10.0 μM, c(Ile) 50.0 μM): 0.02589 mM/min and 0.02563 mM/min and 0.02724 mM/min | initial velocity vo (c(mupirocin) 10.0 μM, c(Ile) 125.0 μM): 0.03919 mM/min and 0.03829 mM/min and 0.04011 mM/min | initial velocity vo (c(mupirocin) 10.0 μM, c(Ile) 250.0 μM): 0.04599 mM/min and 0.04529 mM/min and 0.04478 mM/min | initial velocity vo (c(mupirocin) 10.0 μM, c(Ile) 500.0 μM): 0.04934 mM/min and 0.05031 mM/min and 0.05032 mM/min | initial velocity vo (c(mupirocin) 25.0 μM, c(ATP) 0.5 mM): 0.00319 mM/min and 0.00503 mM/min and 0.00588 mM/min | initial velocity vo (c(mupirocin) 25.0 μM, c(ATP) 1.0 mM): 0.01067 mM/min and 0.00943 mM/min and 0.00942 mM/min | initial velocity vo (c(mupirocin) 25.0 μM, c(ATP) 2.5 mM): 0.01907 mM/min and 0.01967 mM/min and 0.02025 mM/min | initial velocity vo (c(mupirocin) 25.0 μM, c(ATP) 5.0 mM): 0.02681 mM/min and 0.03109 mM/min and 0.0286 mM/min | initial velocity vo (c(mupirocin) 25.0 μM, c(ATP) 10.0 mM): 0.03917 mM/min and 0.04107 mM/min and 0.04101 mM/min | initial velocity vo (c(mupirocin) 25.0 μM, c(ATP) 15.0 mM): 0.04504 mM/min and 0.04533 mM/min and 0.04909 mM/min | initial velocity vo (c(mupirocin) 25.0 μM, c(Ile) 5.0 μM): 0.00364 mM/min and 0.00334 mM/min and 0.0034 mM/min | initial velocity vo (c(mupirocin) 25.0 μM, c(Ile) 15.0 μM): 0.00892 mM/min and 0.00987 mM/min and 0.0094 mM/min | initial velocity vo (c(mupirocin) 25.0 μM, c(Ile) 50.0 μM): 0.02231 mM/min and 0.0224 mM/min and 0.02371 mM/min | initial velocity vo (c(mupirocin) 25.0 μM, c(Ile) 125.0 μM): 0.03603 mM/min and 0.03876 mM/min and 0.03694 mM/min | initial velocity vo (c(mupirocin) 25.0 μM, c(Ile) 250.0 μM): 0.04218 mM/min and 0.04262 mM/min and 0.0435 mM/min | initial velocity vo (c(mupirocin) 25.0 μM, c(Ile) 500.0 μM): 0.04923 mM/min and 0.0502 mM/min and 0.04854 mM/min | initial velocity vo (c(mupirocin) 50.0 μM, c(ATP) 0.5 mM): 0.00358 mM/min and 0.00332 mM/min and 0.00333 mM/min | initial velocity vo (c(mupirocin) 50.0 μM, c(ATP) 1.0 mM): 0.00717 mM/min and 0.00703 mM/min and 0.00712 mM/min | initial velocity vo (c(mupirocin) 50.0 μM, c(ATP) 2.5 mM): 0.01524 mM/min and 0.01474 mM/min and 0.01299 mM/min | initial velocity vo (c(mupirocin) 50.0 μM, c(ATP) 5.0 mM): 0.02517 mM/min and 0.02204 mM/min | initial velocity vo (c(mupirocin) 50.0 μM, c(ATP) 10.0 mM): 0.02784 mM/min and 0.03461 mM/min | initial velocity vo (c(mupirocin) 50.0 μM, c(ATP) 15.0 mM): 0.04055 mM/min and 0.04044 mM/min and 0.04151 mM/min | initial velocity vo (c(mupirocin) 50.0 μM, c(Ile) 5.0 μM): 0.00199 mM/min and 0.00202 mM/min and 0.00228 mM/min | initial velocity vo (c(mupirocin) 50.0 μM, c(Ile) 15.0 μM): 0.00738 mM/min and 0.00705 mM/min and 0.00715 mM/min | initial velocity vo (c(mupirocin) 50.0 μM, c(Ile) 50.0 μM): 0.01837 mM/min and 0.01898 mM/min and 0.01914 mM/min | initial velocity vo (c(mupirocin) 50.0 μM, c(Ile) 125.0 μM): 0.03037 mM/min and 0.03073 mM/min and 0.03042 mM/min | initial velocity vo (c(mupirocin) 50.0 μM, c(Ile) 250.0 μM): 0.03915 mM/min and 0.03813 mM/min and 0.03919 mM/min | initial velocity vo (c(mupirocin) 50.0 μM, c(Ile) 500.0 μM): 0.04564 mM/min and 0.04612 mM/min and 0.04628 mM/min | initial velocity vo (c(mupirocin) 100.0 μM, c(ATP) 0.5 mM): 0.00225 mM/min and 0.00205 mM/min and 0.00262 mM/min | initial velocity vo (c(mupirocin) 100.0 μM, c(ATP) 1.0 mM): 0.00382 mM/min and 0.00482 mM/min and 0.00529 mM/min
